Reference: article PMC10282087
No constants are given. Whether binding was seen depends on the method and setting. In cells and extracts the contact can be indirect. Some results given as binding are weak or reduced against the parent protein; the word gives no strength.

Chains of the proteins cited; added tags and fusions are not shown. Lines headed by an entry give the natural chain unless they say otherwise; changes in a name come on top. A line that says so, or that is headed by a name, gives the form on record, which may keep a tag or linker. Residues count along the entry.
UniProt Q14145: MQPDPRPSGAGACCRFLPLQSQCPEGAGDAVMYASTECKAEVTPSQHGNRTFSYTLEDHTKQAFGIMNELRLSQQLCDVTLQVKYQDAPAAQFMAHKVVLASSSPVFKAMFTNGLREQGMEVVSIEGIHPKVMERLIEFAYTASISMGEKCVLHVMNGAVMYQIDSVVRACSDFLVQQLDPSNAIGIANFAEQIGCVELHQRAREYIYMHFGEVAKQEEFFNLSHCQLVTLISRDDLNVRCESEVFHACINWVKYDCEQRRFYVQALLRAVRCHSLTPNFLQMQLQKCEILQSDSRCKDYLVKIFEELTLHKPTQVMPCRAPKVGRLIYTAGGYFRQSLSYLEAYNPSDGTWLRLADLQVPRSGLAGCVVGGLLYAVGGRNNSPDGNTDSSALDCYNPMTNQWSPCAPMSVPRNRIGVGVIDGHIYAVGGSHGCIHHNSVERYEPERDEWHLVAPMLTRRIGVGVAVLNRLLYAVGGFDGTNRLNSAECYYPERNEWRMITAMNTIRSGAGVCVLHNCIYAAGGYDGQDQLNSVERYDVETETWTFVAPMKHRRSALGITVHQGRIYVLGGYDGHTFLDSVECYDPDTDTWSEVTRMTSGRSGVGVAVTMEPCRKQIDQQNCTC
FLAG-tagged BTB domain of KEAP1: residues 77-149 of Q14145
UniProt Q9Z2X8: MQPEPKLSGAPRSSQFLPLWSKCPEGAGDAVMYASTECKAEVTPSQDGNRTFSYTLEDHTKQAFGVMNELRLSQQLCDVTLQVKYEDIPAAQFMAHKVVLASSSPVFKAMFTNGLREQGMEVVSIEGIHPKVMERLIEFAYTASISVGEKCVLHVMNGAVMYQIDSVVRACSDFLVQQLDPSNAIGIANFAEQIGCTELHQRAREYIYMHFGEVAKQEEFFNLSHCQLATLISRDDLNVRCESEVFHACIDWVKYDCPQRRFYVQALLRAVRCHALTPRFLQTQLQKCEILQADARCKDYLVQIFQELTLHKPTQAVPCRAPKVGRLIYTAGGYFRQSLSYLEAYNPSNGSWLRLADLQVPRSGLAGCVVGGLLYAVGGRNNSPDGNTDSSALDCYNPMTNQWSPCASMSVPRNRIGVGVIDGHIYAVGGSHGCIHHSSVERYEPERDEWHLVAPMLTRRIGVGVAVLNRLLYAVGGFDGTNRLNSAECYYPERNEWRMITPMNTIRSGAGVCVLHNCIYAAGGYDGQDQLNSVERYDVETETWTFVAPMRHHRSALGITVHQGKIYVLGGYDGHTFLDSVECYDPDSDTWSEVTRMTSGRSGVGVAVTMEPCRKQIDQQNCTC

Key:
[1] = biological target: FLAG-tagged USP25 (ubiquitin-specific peptidase 25) (human) (UniProt Q9UHP3); assay: co-IP; HEK293T cells expressing FLAG-tagged proteins or domains, lysed in NETN buffer; Flag beads; washed with NETN at least 3 times; western blotting
[2] = biological target: FLAG-tagged KEAP1 (human) (UniProt Q14145); assay: as above
[3] = biological target: FLAG-tagged BTB domain of KEAP1 (human) (UniProt Q14145); assay: as above
[4] = biological target: GST-USP25 (human) (UniProt Q9UHP3); assay: pull-down; about 25 or 50 ug of purified beads-bound GST-USP25 incubated with cell lysates at 4 C overnight; washed five times with GST buffer (1 mM EDTA, pH8.0 tris-HCl, 200 mM NaCl, 1% Triton X-100); western blotting; only the target purified
[5] = biological target: KEAP1, endogenous in mouse liver (mouse (endogenous in liver)) (UniProt Q9Z2X8); assay: co-IP; endogenous USP25 or KEAP1 immunoprecipitated from liver homogenates of WT mice treated with or without APAP (300 mg/kg, i.p.) for 6 h; western blotting

Kelch-like ECH-associated protein 1 (KEAP1), endogenous in HEK293T cells (from UniProt Q14145 1-624)
binding [1]: binds

USP25, endogenous in HEK293T cells (from UniProt Q9UHP3 1-1055) (enzyme)
binding [2]: binds
binding [3]: no binding

FLAG-tagged KEAP1 (from UniProt Q14145 1-624)
binding [4]: binds

B1: USP25, endogenous in mouse liver (enzyme, UniProt P57080 1-1055)
chain: MTVEQNVLQQSAAQKHQQTFLNQLREITGINDAQILQQALKDSNGNLELAVAFLTAKNAKTPPQEETGYYQTALPGNDRYISVGSQADANVIDLTGDDKDDLQRAIALSLAESNRAFRETGITDEEQAISRVLEASIAENKACLKRTPIEVWRDSRNPYDRKRQEKAPVGLKNVGNTCWFSAVIQSLFNLLEFRRLVLNYKPPSNAQDLPRNQKEHRNLPFMRELRYLFALLVGTKRKYVDPSRAVEILKDAFKSNDSQQQDVSEFTHKLLDWLEDAFQMKAEEETDEEKPKNPMVELFYGRFLAMGVLEGKKFENTEMFGQYPLQVNGFKDLHECLEAAMIEGEIESLHSDNSGKSGQEHWFTELPPVLTFELSRFEFNQALGRPEKIHNKLEFPQVLYLDRYMHRNREITRIKREEIKRLKDYLTVLQQRLERYLSYGSGPKRFPLVDVLQYALEFASSKPVCTSPVDDIDASSSASGPLPSQSLPSTTEQQGPCASDLPGSSSPASGAALPLRSVIHKPFTQSRIPPDLPMHPAPRHITEEELCVLESCLHRWRTEIENDTRDLQESISRIHRTIELMYSDKSMIQVPYRLHAVLVHEGQANAGHYWAYIFDHRESRWMKYNDIAVTKSSWEELVRDSFGGYRNASAYCLMYIDDKAQFLIQEEFNKETGQALVGMETLPPDLRDFVEEDNQRFEKELEEWDTQLAQRSLQEKLLAAPKLREAEASATTAQAGGADYLEQPSRSDLSKHWKEETLRVIAKASHDLEDKGPETVLQSAIKLEYSRLVKLAQEDTPPETDYRLHHVLVYFIQNQAPKKIIEKTLLEQFGDRNLSFDERCHNIMKVAQAKLEMIKPEEVNLEEYEEWHADYKKFRETTMYLITGLENFQRESYIDSLLFLLCAYQNNKELLSKGPYRGHDGELISHYRRECLLKLNEQAAELFESGEDGDVNNGLIIMNEFIVPFLPLLLVDDMEEKDILAVEDMRNRWCSYLGQEMEANLQEKLTDFLPKLLDCSTEIKGFHEPPKLPSYSAHELCERFARIMLSLSRTPADGR
binding [5]: binds
